# Test results from article PMC4336329 (PLoS ONE, 2015).
# About 2,200 (0.71%) of roughly 310,000 compounds showed an effect of 50% or more. Effects have a minus sign here. The list shows a part of the results.
# Molecular target: human ether-à-go-go-related gene (hERG) potassium channel (human, UniProt Q12809)
# Test: primary screen, population patch clamp on CHO cells stably expressing hERG
# Chain of human ether-à-go-go-related gene (hERG) potassium channel (Q12809 whole entry, looked up): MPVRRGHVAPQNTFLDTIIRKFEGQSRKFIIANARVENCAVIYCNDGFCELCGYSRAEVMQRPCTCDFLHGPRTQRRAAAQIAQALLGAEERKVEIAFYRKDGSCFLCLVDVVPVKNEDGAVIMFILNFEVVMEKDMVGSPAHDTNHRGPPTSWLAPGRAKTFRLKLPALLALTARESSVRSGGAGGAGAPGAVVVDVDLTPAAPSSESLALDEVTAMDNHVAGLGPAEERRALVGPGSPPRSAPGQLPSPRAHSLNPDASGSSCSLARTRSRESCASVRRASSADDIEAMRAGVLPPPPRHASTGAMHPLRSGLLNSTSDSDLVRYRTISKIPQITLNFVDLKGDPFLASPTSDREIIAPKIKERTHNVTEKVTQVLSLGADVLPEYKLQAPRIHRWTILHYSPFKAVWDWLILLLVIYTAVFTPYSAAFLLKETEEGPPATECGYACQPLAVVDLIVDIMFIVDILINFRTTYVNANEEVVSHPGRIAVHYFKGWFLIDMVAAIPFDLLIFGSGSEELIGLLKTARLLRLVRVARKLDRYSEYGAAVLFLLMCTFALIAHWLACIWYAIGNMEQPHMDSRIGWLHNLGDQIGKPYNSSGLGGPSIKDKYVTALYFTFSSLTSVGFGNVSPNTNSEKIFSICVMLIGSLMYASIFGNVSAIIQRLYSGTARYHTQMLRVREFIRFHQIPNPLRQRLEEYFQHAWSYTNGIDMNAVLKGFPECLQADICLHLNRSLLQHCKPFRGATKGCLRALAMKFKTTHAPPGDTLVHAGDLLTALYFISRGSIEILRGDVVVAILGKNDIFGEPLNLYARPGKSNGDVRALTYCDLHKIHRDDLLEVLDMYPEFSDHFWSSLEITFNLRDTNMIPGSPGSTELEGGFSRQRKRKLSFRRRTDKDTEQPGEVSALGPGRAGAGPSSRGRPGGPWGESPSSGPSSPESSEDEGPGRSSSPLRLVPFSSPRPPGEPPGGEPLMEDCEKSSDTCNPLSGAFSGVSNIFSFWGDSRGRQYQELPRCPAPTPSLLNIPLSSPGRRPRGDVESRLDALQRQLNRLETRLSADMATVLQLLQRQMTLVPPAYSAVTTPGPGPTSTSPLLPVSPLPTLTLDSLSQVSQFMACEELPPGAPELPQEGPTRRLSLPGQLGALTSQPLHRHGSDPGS
row,Compound,"hERG current change (%, negative = inhibition) at 1uM [%]"
1,CCc1cccc(C)c1NC(=O)COn1nnc2ccc(C(F)(F)F)cc21,16.6
2,Cc1cccc(NC(=O)CSc2nnc([C@H](C)NC(=O)OC(C)(C)C)o2)c1C,7.77
3,CCn1ncc([C@@H]2C[C@H]3CN(Cc4cccc(Cl)c4)C(=O)[C@]34CCCN24)c1C,8.95
4,Cn1nc(C(=O)Nc2ccc(S(=O)(=O)NCc3ccco3)cc2)c2ccccc2c1=O,7.52
5,CN(C)S(=O)(=O)c1ccc(C(=O)OCC2CCCO2)cc1 (stereo not shown),15.5
6,CCCCNC(=O)CCSc1ccc(C)cc1,13.2
7,COc1cccc(NC2c3ccccc3C(=O)N2Cc2ccccc2Cl)c1 (stereo not shown),8.81
8,O=C1C(=O)N(CCCc2ccccc2)c2ccccc21,11.5
9,COc1cc(C(=O)NCC(=O)OCC(=O)N2CCc3ccccc32)cc(OC)c1OC,7.99
10,CC(NC(=O)C1CCN(S(=O)(=O)c2cccc3cccnc23)CC1)c1ccccc1 (stereo not shown),20.7
11,CCOc1ccc(OCCn2c(SCC(=O)O)nc3ccccc32)cc1,10.6
12,Cc1ccc(Nc2nc(C(=O)N3CCC(C(=O)NCCN4CCOCC4)CC3)cs2)cc1,6.16
13,OCc1nc2ccccc2n1Cc1ccc(Cl)cc1,14.8
14,CC(=O)c1ccc(N(CC(=O)NC2CCCCC2)C(=O)c2csnn2)cc1,11.1
15,Cc1nn(-c2ccccc2)c(N)c1-c1ccccc1,14.3
16,COCCn1c(SCC(=O)Nc2ccc3c(c2)CCC3)nc2ccccc2c1=O,10.4
17,N#Cc1cc(Oc2ccccc2)c(-n2nnc3ccccc32)cc1C#N,7.75
18,O=C(COC(=O)c1cnccn1)c1ccc(Cl)cc1,25
19,CN(C)c1ccc(/C=N/NC(=O)c2nnn(-c3nonc3N)c2CN2CCCCCC2)cc1,12.8
20,Cc1ccc(N=C2NC(=O)CC(C(=O)Nc3ccc4c(c3)OCO4)S2)cc1 (stereo not shown),18.9
21,CCOc1ccc(CC(C(N)=O)C(N)=O)cc1,-15.8
22,O=C(c1ccc(Br)o1)N1CCN(c2ccc3nnc(-c4ccccc4)n3n2)CC1,-28.7
23,CCC(=O)Nn1cnc2c(c1=O)C1(CCCCC1)Cc1ccccc1-2,8.33

row,Compound,"hERG current change (%, negative = inhibition) at 1uM [%]"
1,CC(C)OCCCNc1ncnc2c1[nH]c1ccc(F)cc12,9.01
2,COc1cc(NC(=O)c2cccs2)ccc1NC(=O)c1ccco1,18.5
3,CCOC(=O)C1=C(N)N2C(=O)C(C)SC2=C(C(=O)OCC)C1c1ccccc1 (stereo not shown),9.84
4,COc1ccc(NC(=O)CN(C)C(C)C(=O)NC(=O)NC2CCCCC2)cc1 (stereo not shown),-2.47
5,CCOc1ccc(C(=O)OCC(=O)NC2CCCC2)cc1OCC,11.8
6,CCn1c(SCc2cccnc2)nnc1-c1c[nH]c2ccccc12,-5.12
7,CCCn1nc(NC(=O)CC(C)C)c2cc3ccccc3nc21,11.3
8,CCC(NC(=O)Nn1cnnc1)(C(F)(F)F)C(F)(F)F,12.3
9,CC1CCC2(CC1)NC(=O)N(NC(=O)c1cccs1)C2=O (stereo not shown),7.75
10,NC(=O)/C=C\C(=O)Nc1cccc(C(F)(F)F)c1,1.44
11,O=C(NCc1ccco1)C(c1ccc(F)cc1)N(C(=O)Cc1cccs1)c1cccnc1 (stereo not shown),14.4
12,COc1cc(/C=N/NC(=O)c2cc(C)n(-c3ccc(F)cc3)c2C)cc(OC)c1O,-1.94
13,Cc1ccc(C(=O)CSc2nnc(COc3ccccc3)o2)cc1,13.4
14,Cl.Cn1c(=O)c2c(nc(N3CCOCC3)n2CCNC2=NCCC2)n(C)c1=O,11
15,O=C(c1cccc(Br)c1)N1CCN(C(=O)c2cccc(Br)c2)CC1,-3.78
16,C=CCc1cccc(/C=N/n2cnnc2)c1O,0.938
17,CCN(CC)/C(=N/S(=O)(=O)c1ccc(C)cc1)c1ccccc1,5.95
18,C=CCC1NS(=O)(=O)OC(COC)C1C (stereo not shown),19
19,Cc1nc2c(-c3ccc(F)cc3)c(C)nn2c(C)c1CCC(=O)Nc1ccccc1,11.2
20,Cc1ccc(CNC(=O)CSc2c3c(nc4cc(Cl)ccc24)CCCC3)o1,4.2
21,O=C(COc1ccc2ccccc2c1)N1CCN(C2CCN(Cc3ccccc3)CC2)CC1,-69.6
22,CC(C)NC(=O)NC(=O)COC(=O)C1CCCN1C(=O)c1cccs1 (stereo not shown),8.04
23,CCOc1ccc(NC(=O)c2ccc(NS(=O)(=O)c3cccs3)cc2)cc1,12.4
